Source: patent publication US10214584B2, “Therapeutic pharmaceutical composition employing anti-SLC6A6 antibody” (ORDER-MADE MEDICAL RESEARCH INC., priority 2014, dated 2019)

System: cells
Experiment: Internalization by flow cytometry with surface quench by anti-Alexa Fluor 488 antibody
Type: cell-based
Conditions: FIG. 13B
Method: These antibodies were analyzed for their internalization by flow cytometry using cells treated in two ways.
For the first way, the following operations were performed. Cells detached from culture dishes were suspended in staining buffer [PBS(−)-3% fetal bovine serum]. To this cell suspension, protease inhibitors were added (final concentration: 10 μg/mL leupeptin, 5 μM pepstatin) to prevent antibody molecules from being degraded in lysosomes after being taken up into the cells. Each Alexa Fluor 488-labeled antibody was added to the cell suspension at a final concentration of 30 μg/mL and then rotated with a rotator at room temperature for 1 hour. After being further rotated with a rotator at 37° C. for 3 hours, the cells were washed three times with the staining buffer and then measured for fluorescence signals by flow cytometry (FIG. 13B; isotype control, chimeric antibody).
The cells obtained in the first way were reacted at 4° C. for 1 hour with an antibody binding to Alexa Fluor 488 and thereby quenching its fluorescence (anti-Alexa Fluor 488, rabbit IgG antibody fraction: anti-Alexa Fluor 488 antibody) at a final concentration of 50 μg/mL to observe changes in fluorescence intensity (FIG. 13B; surface quench). […]

B1: 430 human-mouse chimeric antibody: chimeric antibody, H chain SEQ ID NO: 44, L chain SEQ ID NO: 46 (antibody)
heavy: EIQLQQSGPEVVKPGTSVRVSCTASGYAFTQYNLYWVKLRHGKCPKWIGSIDPYIGGANYNQQFKDKVTLTVDKSSSTAYLHLNSLTSEDSAIYYCARWWDGYFDVWGAGTTVTVSS[human IgG1 constant region not spelt out]
light: QIVLTQSPAIMSASLGERVTMTCTASSSVSFRYLHWYQVKPGSSPKLWIYSTSNLASGVPSRISGSGSGTSYFLTISNMEAEDAATYYCHQYHRSPLTFGAGTKLELTRTVAAPSVFIFPPSDEQLKSGTASVVCLLNNFYPREAKVQWKVDNALQSGNSQESVTEQDSKDSTYSLSSTLTLSKADYEKHKVYACEVTHQGLSSPVTKSFNRGEC
Question: With B1 as the molecule, how does the “uptake into the cells compared with the 4B9b human-mouse chimeric antibody” value read?
Answer: more efficiently taken up into the cells than the 4B9b human-mouse chimeric antibody

Question: What about the “fluorescence upon addition of the anti-Alexa Fluor 488 antibody (surface quench)” value (labeled antibody 30 μg/mL, 1 hour room temperature and 3 hours 37° C.) of the same molecule?
Answer: did not disappear
